From PubChem BioAssay AID624417 (National Center for Advancing Translational Sciences (NCATS), 2012)
Values joined by “and” are separate entries in the source; they are usually repeats but may differ in a detail not shown here. Equal entries are not always repeated. The whole screen tested about 410,000 compounds, of which about 6,400 (1.6%) were called active. The inconclusive results got no clear call from the source; some entries with a clear call stand among them for comparison. The call rests on the fitted dose curve; in most records, active means well fitted inhibition curve with a large enough effect; inconclusive means small, poorly fitted or top-dose-only effect; inactive means no such curve, though single readings can be large or run the other way. Potencies of inconclusive entries are doubtful fits and often do not repeat.

Target: Glucagon-like peptide 1 receptor (Homo sapiens) (UniProt P43220)
Assay: qHTS of GLP-1 Receptor Inverse Agonists (Inhibition Mode); further: nearly all actives have a fitted effect of over 55% in size
Details: HEK293 GLP-1R CRE-luciferase, luminescence, 24 h, GLP-1R form is constitutively active; series mostly up to 38.3 µM
Method in brief: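 GLP-1R inverse agonism mode: basal reporter luminescence in engineered HEK293 cells measured after one day of compound exposure at 37 deg C, with a 12 min room-temperature detection step.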
Potency means the concentration at half of the fitted maximal effect; tags describe the fitted curve by direction and shape.

Chain of UniProt P43220 (P43220 whole entry, looked up): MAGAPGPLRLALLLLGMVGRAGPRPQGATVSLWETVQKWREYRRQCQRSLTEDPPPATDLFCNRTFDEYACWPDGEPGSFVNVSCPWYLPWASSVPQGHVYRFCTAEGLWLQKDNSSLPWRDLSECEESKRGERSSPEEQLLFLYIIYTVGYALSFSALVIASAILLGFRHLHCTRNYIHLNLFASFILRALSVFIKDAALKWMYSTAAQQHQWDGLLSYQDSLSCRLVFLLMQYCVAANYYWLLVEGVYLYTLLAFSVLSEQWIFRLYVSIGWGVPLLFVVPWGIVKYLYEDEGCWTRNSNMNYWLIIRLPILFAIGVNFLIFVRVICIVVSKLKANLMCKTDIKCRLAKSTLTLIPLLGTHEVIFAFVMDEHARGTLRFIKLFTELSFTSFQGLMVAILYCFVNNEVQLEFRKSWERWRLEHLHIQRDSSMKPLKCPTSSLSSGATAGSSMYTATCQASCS

Potency, inconclusive:
CN(CCCC(=O)NCc1ccc2c(c1)OCO2)S(=O)(=O)c1ccc([N+](=O)[O-])cc1 7.08 µM [inhibitor, partial curve, poor fit], Cc1cc(N2CCN(C)CC2)nc2ccc(NC(=O)c3ccc(C(C)(C)C)cc3)cc12 28.2 µM [inhibitor, single point], C[C@H](CO)N1C[C@H](C)[C@H](CN(C)C(=O)c2ccccn2)Oc2cc(C#Cc3ccc(F)cc3)ccc2S1(=O)=O 11.2 µM [inhibitor, single point], CCOc1ccccc1N1CCN(C(=O)CSc2ccc3c(c2)OCCO3)CC1 10 µM [inhibitor, partial curve], O=C(NNC1=Nc2ccccc2SC1)c1ccc(F)cc1 10 µM [inhibitor, partial curve, poor fit], C=CCN(CC=C)CCOc1cc(C)ccc1[N+](=O)[O-] 7.94 µM [inhibitor, partial curve, poor fit], O=C(c1ccc(-c2nc3ccccc3s2)o1)N1CCN(c2ccccc2O)CC1 11.2 µM [inhibitor, single point], Cn1cnnc1Sc1cc(N2CCN(S(=O)(=O)c3ccccc3)CC2)ccc1[N+](=O)[O-] 28.2 µM [inhibitor, single point], C=CC(COCc1ccccc1)N(Cc1ccc(OC)cc1)S(=O)(=O)c1ccccc1Br (centres undefined) 12.6 µM [inhibitor, partial curve, poor fit], CC1(c2nnc(-c3ccccc3)o2)CC(c2cccc(Cl)c2)=NO1 (centres undefined) 12.6 µM [inhibitor, single point], CCCC(C(=O)Nc1cccc(S(=O)(=O)N2CCCC2)c1)c1ccccc1 (centres undefined) 25.1 µM [inhibitor, single point], COc1ccc(NC(=O)C(Cc2c[nH]c3ccccc23)NC(=O)OC(C)(C)C)cc1 (centres undefined) 17.8 µM [inhibitor, partial curve, poor fit], Cc1ccn2c(Nc3c(C)cccc3C)c(-c3ccsc3)nc2c1 28.2 µM [inhibitor, single point], COc1ccc(S(=O)(=O)N2CCCC2C(=O)NCc2ccccc2Cl)cc1 (centres undefined) 31.6 µM [inhibitor, single point], C=C(C)C(O)Cc1c(OC)ccc(C(=O)/C=C/c2ccc(O)cc2)c1O (centres undefined) 7.94 µM [inhibitor, partial curve, poor fit], CCC(Oc1ccccc1)C(=O)N(CC)CC(=O)NCc1ccc(F)cc1 (centres undefined) 3.98 µM [inhibitor, partial curve, poor fit], COc1ccc(OC)c(/C=C/C(=O)Nc2ccc3c(c2)CCC3)c1 10 µM [inhibitor, single point], Cc1cc2occ(CC(=O)NC3(C)CCS(=O)(=O)C3)c2cc1C (centres undefined) 31.6 µM [inhibitor, single point], CCN(CC)C(=O)c1ccc2c(c1)N(Cc1c(F)cccc1Cl)C(=O)c1ccccc1S2 28.2 µM [inhibitor, single point], O=S(=O)(c1cccc(C(F)(F)F)c1)N(CCCN1CCOCC1)Cc1cccs1 11.2 µM [inhibitor, single point] and 12.6 µM [inhibitor, partial curve, poor fit], CCOC(=O)Cc1c(C)nc2c(-c3ccc(Cl)cc3)c(C)[nH]n2c1=O 11.2 µM [inhibitor, single point], O=C(NC(=S)Nc1ccc2c(c1)OCCO2)c1cccc(Br)c1 28.2 µM [inhibitor, single point], Cc1nc2sc(C(c3cccs3)N3CCN(c4cccc(Cl)c4)CC3)c(O)n2n1 (centres undefined) 11.2 µM [inhibitor, single point], Cc1c(C(=O)NCc2ccc(F)cc2)sc(=O)n1Cc1ccccc1F 7.94 µM [inhibitor, partial curve, poor fit], CCN(CC)CCn1c(=O)n(-c2ccc(Cl)cc2)c(=O)c2c3c(sc21)CN(C)CC3 28.2 µM [inhibitor, single point], O=C(CSc1nnnn1C1CCCCC1)Nc1ccc2c(c1)OCO2 1.12 µM [inhibitor, full curve, poor fit], CCOc1ccc(NC(=O)CC2C(=O)N(c3ccccc3)C(=O)N2CCc2cccs2)cc1 (centres undefined) 28.2 µM [inhibitor, single point] and 10 µM [inhibitor, single point], O=[N+]([O-])c1cccc(CON=Cc2ccccc2O)c1 22.4 µM [inhibitor, single point], COc1ccc(OCC(=O)NNC(=O)C2CCN(c3ncnc4sc(C)c(C)c34)CC2)cc1 28.2 µM [inhibitor, single point]

Potency, inactive:
O=C(O)c1ccccc1Nc1ccccc1C(=O)O, CCN(CC)S(=O)(=O)c1ccc(NC(=O)c2cc3ccc4cccnc4c3[nH]2)cc1, CN(Cc1ccccc1)c1nnc(NC(=O)Nc2cccc(Br)c2)s1, CCOC(=O)CNC(=O)c1sc(NC(=O)c2cccc(F)c2)nc1C, COc1cccc(-c2nnc(-c3ccc(C(F)(F)F)cc3)o2)c1OC, COc1cc2[nH]c(=O)n(CCCCCC(=O)N3CC=C(c4ccccc4)CC3)c(=O)c2cc1OC, CCN(CC)C(=O)c1sc2c(c1C)c(=O)n(-c1ccccc1)c(=O)n2Cc1c(C)cc(C)cc1C, COc1ccc(-c2cn3nc(N4CCC(C(=O)Nc5ccccc5OC)CC4)sc3n2)cc1, O=C(c1ccc(NS(=O)(=O)c2ccc(F)cc2)cc1)N1CCN(c2ccccc2O)CC1, CC1(C(=O)Nc2ccc3c(c2)OCCO3)CN(S(C)(=O)=O)CC(=O)N1Cc1cccc(F)c1 (centres undefined)
